# Hit rate of the full screen: of about 43,000 compounds, about 200 (0.47%) were called active. Another 12% or so got no clear call; they are omitted. Calls come from the whole dose curve; as a rule, active = well fitted cell-killing curve with a large enough effect; inconclusive = small, poorly fitted or top-dose-only effect, or effect the other way; inactive = flat fitted curve, though single readings scatter. Some of the results follow.
# Experiment: Cell viability qHTS assay in S16 Pmp22-F2sN cells; note: nearly all actives have a fitted effect of over 65% in size
# Details: S16 Pmp22-F2sN Schwann cells (luciferase reporters placed in the Pmp22 gene) viability, CellTiter-Glo, 24 h; series mostly up to 57.5 µM; activity change, negative = cytotoxicity: at the top concentration
# Excerpt: Assay Provider: Jim Inglese Ph.D. National Center for Advancing Translational Science, National Institutes of Health, Rockville, MD CMT is a heterogeneous group of neurological disorders that affect approximately 1 in 2,500 people. In particular, the most common form of CMT, CMT1A is genetically linked to the duplication of the PMP22 gene which leads to Schwann cell overexpression, thus manifesting itself as a typical case of dose-sensitive diseases. To identify small molecule compounds that can mediate the expression of PMP22 we developed a phenotypic assay screening strategy by utilizing genome editing techniques to construct Schwann cell lines containing novel reporter technology to monitor the transcriptional or translational regulation of PMP22. For high sensitivity we use a bioluminescent reporter system embedded in the 3' UTR of the PMP22 gene (S16(c9) Pmp22-F2sN) to identify compounds that inhibit gene expression. […] We can further discriminate the effect of all transcriptionally active molecules on PMP22 translation or stability with an assay that incorporates a short NLuc peptide (HiBiT) at the C-terminus of expressed PMP22 (S16(f8) PMP22-HiBiT) allowing alpha complementation and luminescence detection of membrane-associated PMP22 protein. These assays were screened against the NCATS Sytravon Library Collection. Miniaturization of these assays to 1536-well plate format for quantitative high throughput screening (qHTS) yielded rich data sets immediately from the qHTS assay (S16(c9) Pmp22-F2sN), when compared with data from a cell viability assay (Cell TiterGlo) to identify compounds that decreased the output signals through cellular toxicity to streamline the selection process of actives for subsequent characterization using the HiBiT assay (S16(f8) PMP22-HiBiT).
# Cell viability assay in S16 Pmp22-F2sN cells PROTOCOL TABLE (format as described by Inglese J, Shamu CE and Guy RK. 2007) SEQUENCE No. (e.g., 1, 2, 3, etc.); […] (e.g., Cells, Incubation, Reagent, etc.); VALUE and DESCRIPTION. 1. Cells. Add 500-1,000 cells in 4 uL in growth media (DMEM High Glucose, No Phenol Red media + 10% heat-inactivated FBS + 1% Pen/Strep supplemented media) per well into Greiner 1536-well white/solid bottom high base, TC-treated plates. 2. Compounds. Library compounds and controls added at 23nL per well, transferred by Pin Tool. 3. Incubation. Incubate plates at 37C, 5% CO2, 95% RH for 24 h. 4. Reagent. Add 3uL CellTiter-Glo per well of Greiner 1536-well plates. 5. Incubation. Incubate plates at room temperature for 15 min., protect from light. 6. Detector. FLuc luminescence measured using CCD-based camera (Viewlux). NOTES (numbers refer to Sequence numbers above; values are from representative experiments) 6. Luminescence Read: Clear filter; Exposure = 1 sec, Gain = High, Speed = Slow, Binning = 2X REFERENCES: 1. Inglese J, Shamu CE and Guy RK, Reporting data from high throughput screening of small molecule libraries, Nature Chemical Biology, 2007, 3(8): 438-441. doi.org/10.1038/nchembio0807-438 2. Yasgar A, Shinn P, Jadhav A, Auld DS, Michael S, Zheng W, Austin CP, Inglese J and Simeonov A, Compound Management for Quantitative High-Throughput Screening. J. Assoc. Lab. Auto., 2008, 13: 79-89. doi: 10.1016/j.jala.2007.12.004
# % is set by controls: 0 for no effect and ±100 for the full control effect.
row,Compound,"activity change, negative = cytotoxicity"
1,COc1ccc(NC(=O)Cn2c(SCc3cc(C)ccc3C)nc3ccncc32)c(OC)c1OC,inactive: -13.8%
2,COc1ccc2c(CNCc3cccs3)c(C(=O)O)n(Cc3ccccc3)c2c1,inactive: 2.57%
3,CCOc1ccccc1NC(=O)Cn1cc(C(=O)c2cccc(OC)c2)c(=O)c2ccc(C)nc21,inactive: 18.9%
4,O=C(Cn1c(=O)c2cccn2c2ccccc21)NCCc1ccccc1,inactive: -2.55%
5,CCOc1cc(CNC(=O)C2COc3ccccc3C2)cc(OCC)c1OCC (stereo not drawn),inactive: 4.18%
6,Fc1ccc(-c2noc3ncnc(NCCc4ccccc4)c23)cc1,inactive: -3.76%
7,COc1ccc(Nc2nc(-c3ccc(C)cc3)nc3ccccc23)c(OC)c1,inactive: -3.01%
8,CCCCCn1c(C(C)NC(=O)c2ccccc2)nc2ccccc21 (stereo not drawn),inactive: -0.71%
9,CCOc1ccc(-c2nonc2NC(=O)COc2c(C)cc(C)cc2C)cc1OCC,inactive: -3.11%
10,COc1ccc2c(c1)c1c(c(=O)n(Cc3ccccc3)c(=O)n1CC(=O)NCc1ccccc1Cl)n2C,inactive: 3.47%
11,Cc1ccc(C)c(N2CCN(C(c3ccccc3)c3nnc(-c4ccccc4F)o3)CC2)c1 (stereo not drawn),inactive: 8.35%
12,CCOc1ccc(-c2ccc(NS(=O)(=O)c3ccc(C)cc3)cc2)nn1,inactive: -3.95%
13,Cc1cccn2c(=O)c(/C=C(\C#N)c3nc4ccccc4[nH]3)c(Oc3ccc(C(C)(C)C)cc3)nc12,inactive: 25%
14,O=C(CCc1nc(-c2cccs2)no1)Nc1cccc([N+](=O)[O-])c1,inactive: 9.48%
15,CCOc1ccc(Sc2cc(C(=O)NC(C)c3ccccc3)c3ccccc3n2)cc1 (stereo not drawn),inactive: 2.71%
16,Cc1ccsc1CN(C(=O)COc1ccc(Br)cc1)C1CCS(=O)(=O)C1 (stereo not drawn),inactive: 4.66%
17,Cc1ccc(OCC(=O)Nc2cc3nn(-c4ccccc4)nc3cc2C)cc1,inactive: 22.1%
18,Cc1ccc(C(=O)Nc2ccc(NC(=O)c3cccs3)cc2)cc1C,inactive: 5.72%
19,Cc1cc(Cl)ccc1NC(=O)C(=O)NCc1ccco1,inactive: -18.4%
20,Cc1ccc(OCC(=O)OCc2cc(=O)n3nc(-c4cccs4)sc3n2)cc1C,inactive: -3.99%
21,Cc1ccc(-c2nc3n(n2)C(=O)CC(c2ccc(Cl)cc2)S3)cc1 (stereo not drawn),inactive: -5.2%
22,Cc1cc(C)c(NC(=O)Cn2c(=O)n(-c3ccc(CC(=O)NCC4CCCO4)cc3)c(=O)c3ccccc32)c(C)c1 (stereo not drawn),inactive: 19.2%
23,O=C(NCc1ccc(F)cc1)c1cc2n(n1)CCCN(Cc1ccc(F)cc1)C2=O,inactive: -8.35%
24,Cc1ccc(C(=O)Nc2sc3c(c2C(=O)NCc2ccco2)CCC(C(C)(C)C)C3)cc1 (stereo not drawn),inactive: 13.8%

row,Compound,"activity change, negative = cytotoxicity"
1,COc1ccc(N(C(=O)c2cccc(C)c2)S(=O)(=O)c2ccc(Cl)cc2)cc1,inactive: -1.03%
2,CCOc1cc(C(=O)N2CCn3c4c(c5cc(C)ccc53)CCCC42)cc(OCC)c1OCC (stereo not drawn),inactive: 17.3%
3,Fc1ccc2c(c1)-c1nc(-c3ccccc3)cc(-c3ccccc3)c1CO2,inactive: 13.1%
4,COc1cccc(C2C(C(=O)Nc3ccc(C)cc3C)=C(C)Nc3nc4ccccc4n32)c1OC (stereo not drawn),inactive: 13.9%
5,CC1(C)C(=O)N(CC(=O)Nc2ccc(Br)cc2F)c2ccccc21,inactive: -0.766%
6,CCOc1ccc(CNS(=O)(=O)c2ccc(-c3coc(C)n3)cc2)cc1,inactive: 2.43%
7,Cc1nc2ccc(S(=O)(=O)N(C)CC(=O)Nc3cccc(C(F)(F)F)c3)cc2s1,inactive: 6.43%
8,CCOC(=O)c1cc(S(=O)(=O)N2CCN(c3ccccc3F)CC2)[nH]n1,inactive: 4.8%
9,CCOc1ccc(OCC)c(NS(=O)(=O)c2ccc(-c3coc(C)n3)cc2)c1,inactive: -28.7%
10,Cn1c(=O)[nH]c(=O)c2c1nc(NCCc1ccccc1)n2Cc1ccc(F)cc1,inactive: -27.5%
11,CC(=O)N1CCC(N(Cc2ccc(C)o2)C(=O)Nc2ccc(C)cc2)CC1,inactive: 0.298%
12,CCOc1ccc2nc(NC(=O)c3nc(SC)ncc3Cl)sc2c1,inactive: 1.13%
13,CCOc1ccccc1NC(=O)Cc1noc2ccc(C)cc12,inactive: 5.03%
14,Cn1cc(S(=O)(=O)N2CCOCC2)cc1C(=O)Nc1ccc(Cl)c(C(F)(F)F)c1,inactive: -23.2%
15,Cc1cc(NC(=O)Nc2nnc(N(C)Cc3ccccc3)s2)ccc1Br,inactive: 13.5%
16,Cc1ccc(N(CC(=O)Nc2cccc(Cl)c2)S(=O)(=O)c2cccs2)cc1,inactive: -5.07%
17,CCN(Cc1ccccc1)S(=O)(=O)c1ccc2c(c1)CC(C)N2C(=O)C1CCC1 (stereo not drawn),inactive: -29.5%
18,CC(=O)C1=C(c2ccc(Cl)cc2)N(C(C)=O)n2c(nnc2C2CCCCC2)S1,inactive: 0.644%
19,COc1cccc(CNC(=O)c2cc3c(=O)oc4ccc(C)cc4c3s2)c1,inactive: -18.1%
20,Cc1ccc2c(c1)N(CCC(=O)NCc1ccccc1Cl)C(=O)CO2,inactive: -8.24%
21,O=c1c2oc3ccccc3c2n(Cc2ccccc2F)c(=O)n1Cc1ccccc1,inactive: 4.34%
22,Cc1ccc2onc(CC(=O)Nc3ccc(C(C)C)cc3)c2c1,inactive: 10.5%
23,Cn1c(=O)[nH]c2cc(-c3noc(-c4cccc(Cl)c4)n3)ccc21,inactive: 4.43%
24,CCCNC(=O)Cn1nc(-c2ccc(F)cc2)c2cnc3ccc(F)cc3c21,inactive: 3.82%

# — PubChem BioAssay AID1508642 (National Center for Advancing Translational Sciences (NCATS), 2021)
